Reference: PubChem BioAssay AID445 (National Center for Advancing Translational Sciences (NCATS), 2006)
Out of some 110,000 compounds screened, about 40 (0.04%) were called active. Inconclusive means that the source gave no clear call. Such entries were picked first, then a sample of the others. The call rests on the fitted dose curve; in most records, active means well fitted curve in the direction sought with a large enough effect in the signal ratio (not every such curve was filed as active); inconclusive means small, poorly fitted or top-dose-only effect, or a change in a side signal; inactive means flat fitted curve, though single readings scatter; the % refers to the signal ratio. A potency beside an inconclusive call is a rough fit, not a confirmed value.

Experiment: IkB Signaling
Settings: ABC-DLBCL IkBa-CBG/CBR dual luciferase ratio (green luciferase fused to IkBa over red control in OCI-Ly3 lymphoma cells), 4 h; IkBa stabilization activation: at 57.1 µM (top of the series), scaled: untreated 0%, proteasome inhibitor 100% unless noted
In short: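 Curves were fitted separately to fusion (green), unfused (red) and ratio luminescence, then classed by r2, magnitude and activity. Cells: OCI-Ly3, 4 h compound plus doxycycline at 37C; 10 uM MG-132 defined full response.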
Potency means the concentration at half of the fitted maximal effect.

Row | Structure (SMILES) | IkBa stabilization activation | Potency
1 | CC(NC(=O)c1ccc(Cn2c(=O)c3cccn3c3cccnc32)cc1)c1ccccc1 (stereo unspecified) | inconclusive: -1.29% [signal inhibitor] | 
2 | O=C(C1COc2ccccc2O1)N1CCN(Cc2ccc3c(c2)OCO3)CC1 (stereo unspecified) | inconclusive: 1.5% [signal inhibitor] | 
3 | Cc1ccc(C)c(Nc2nc3c(S(=O)(=O)c4ccc(Br)cc4)nnn3c3ccsc23)c1 | inconclusive: -0.624% [signal inhibitor] | 
4 | O=C(Nc1ccc(F)c(F)c1)c1cc(S(=O)(=O)NCc2ccc3c(c2)OCO3)ccc1F | inconclusive: -2.03% [signal inhibitor] | 
5 | CCCCC(=O)Nc1nnc(SCc2cc(=O)n3cc(C)ccc3n2)s1 | inactive | 
6 | Cc1ccc(CNC(=O)CSc2nc(=O)n(Cc3ccco3)c3c2CCC3)cc1 | inconclusive: 2.3% [signal inhibitor] | 
7 | COc1ccc(-c2nnc(-c3ccc(Br)o3)o2)cc1OC | inactive | 
8 | O=C(NCCOc1ccccc1)c1cc2ccccc2o1 |  | inconclusive: 15.8 µM [signal inhibitor, partial curve]
9 | COc1ccc2oc(C(=O)C3CC3)c(N)c2c1 | inactive | 
10 | COc1ccc(C2=NC3(CCCCCC3)N(CC(=O)Nc3cccc(Cl)c3)C2=O)cc1 | inconclusive: 1.22% [signal inhibitor] | 
11 | Cc1ccc(NC(=O)CSc2nc3nc(C)cc(C)c3c(=O)[nH]2)cc1 | inactive | 
12 | CC1CCN(c2ccc(-c3cccc(NS(=O)(=O)c4cccs4)c3)nn2)CC1 | inconclusive: 7.18% [signal inhibitor] | 
13 | CCCNc1nc2c(c(=O)n(C)c(=O)n2C)n1CCC(C)C | inconclusive: 2.22% [signal inhibitor] | 
14 | COc1ccccc1CNc1ccc(-c2nc(-c3ccccc3C)no2)cc1[N+](=O)[O-] | inconclusive: -2% [signal inhibitor] | 
15 | Cc1cc(C)cc(NC(=O)C2CCN(C(=O)c3cnn(-c4ccccc4)c3-n3cccc3)CC2)c1 | inconclusive: 4.79% [signal inhibitor] | 
16 | Cc1nc2cnc(Oc3ccccc3)nc2n(-c2ccccc2)c1=O | inactive: -0.441% [at 11.4 µM, scaled: untreated 0%, proteasome inhibitor 100%] | 
17 | CCC(C(=O)Nc1ccccc1)n1nc(-c2cc(C)ccc2C)ccc1=O (stereo unspecified) | inconclusive: -0.384% [signal inhibitor] | 
18 | Cc1ccc(CN2C(=O)C(=O)c3cc(Br)cc(C)c32)cc1 | inconclusive: 1.28% [signal inhibitor] | 
19 | C[C@@H]1c2ccccc2Cn2cc3c(c21)C(=O)c1cccc(OP(=O)(O)OCc2ccccc2)c1C3=O | inactive: 0.61% [at 11.4 µM, scaled: untreated 0%, proteasome inhibitor 100%] | 
20 | O=C(CN1CCN(Cc2ccc3c(c2)OCO3)CC1)N1CCc2[nH]c3ccc(F)cc3c2C1 | inconclusive: 3.16% [signal inhibitor] | 
21 | Cc1ccccc1Nc1c(-c2cccnc2)nc2cccc(C)n12 | inconclusive: 0.182% [signal inhibitor] | 
22 | CCOc1ccc(-n2c(=O)c3c(C)c(C)sc3n(CC(=O)Nc3ccc(CC)cc3)c2=O)cc1 | inconclusive: 3.76% [signal inhibitor] | 

Row | Structure (SMILES) | IkBa stabilization activation | Potency
23 | CCN(C(=O)c1cc2c(=O)n(CC)c3ccccc3c2s1)c1cccc(C(F)(F)F)c1 | inconclusive: -0.873% [signal inhibitor] | 
24 | Cn1nc(-c2ccc(OCC(=O)Nc3ccc(Cl)cc3)cc2)c2ccccc2c1=O | inactive | 
25 | COc1ccc(Br)cc1CNC(=O)c1cnc2sc(N3CCCCCC3)nn2c1=O | inconclusive: 1.44% [signal inhibitor] | 
26 | COc1ccc(-c2nnc3n2N=C(c2ccccc2)CS3)cc1OC | inactive | 
27 | COc1cccc(NC(=O)Cn2c(=O)ccc3cc(S(=O)(=O)N4CCC(C)CC4)ccc32)c1 | inconclusive: 0.516% [signal inhibitor] | 
28 | COc1ccc(-c2cc(-c3c(O)c(OC)c4occc4c3OC)[nH]n2)cc1OC | inconclusive: 5.49% [signal inhibitor] | 
29 | COc1ccc(Cl)cc1S(=O)(=O)N1CCN(CC(=O)Nc2ccccc2C(F)(F)F)CC1 | inconclusive: 1.16% [signal inhibitor] | 
30 | CCSc1nc2c([nH]c3ccccc32)c(=O)n1-c1cccc(OC)c1 | inconclusive: 3.03% [signal inhibitor] | 
31 | CCOc1cc(C2c3c(oc4cc(C)c(Cl)cc4c3=O)C(=O)N2Cc2ccco2)ccc1O (stereo unspecified) | inactive | 
32 | c1ccc(-c2noc(-c3ccco3)n2)nc1 | inconclusive: 9.81% [signal inhibitor] | 
33 | COc1cc(C(=O)Nc2cccc(OCc3cc(=O)n4cc(C)sc4n3)c2)cc(OC)c1OC | inconclusive: 3.17% [signal inhibitor] | 
34 | CC(=O)Nc1nonc1-c1nnc(SCC(=O)Nc2cccc(C)c2C)n1-c1ccccc1 | inconclusive: 5.02% [signal inhibitor] | 
35 | COc1ccc(-c2nc(CCNC(=O)c3c(F)cccc3Cl)cs2)cc1 | inconclusive: 4.96% [signal inhibitor] | 
36 | CC1CCN(C(=O)Cn2cc(SCC(=O)Nc3ccccc3C(F)(F)F)c3ccccc32)CC1 | inconclusive: 2.15% [signal inhibitor] | 
37 | Cc1ccc(-n2ncc(C(=O)N3CCN(c4ncccn4)CC3)c2C2CCN(C(=O)OC(C)(C)C)CC2)cc1 | inconclusive: 0.938% [signal inhibitor] | 
38 | COc1ccc(S(=O)(=O)NCCSCc2cccs2)cc1 | inconclusive: 1.57% [signal inhibitor] | 
39 | C=CCn1c(SCC(=O)NC2CCCC2)nc2scc(-c3ccco3)c2c1=O | inconclusive: 8.88% [signal activator] | 
40 | Cc1nc(-c2ccc(S(=O)(=O)N(C)Cc3ccccc3)cc2)co1 | inconclusive: 13.1% [signal inhibitor] | 
41 | Cc1cc(C)cc(N2C(=O)CS(=O)(=O)C23C(=O)N(C)c2ccccc23)c1 (stereo unspecified) | inconclusive: 0.795% [signal inhibitor] | 
42 | CCn1c2ccccc2c2nnc(N3CCN(c4ccc(OC)cc4)CC3)nc21 | inconclusive: -2.09% [signal inhibitor] | 
43 | COc1ccc(-c2cc(C(F)(F)F)nc(SCCC(=O)Nc3ccc(O)cc3)n2)cc1 | inactive | 
44 | Cc1cc(-c2ccc(N=Nc3cc(S(=O)(=O)O)c4ccccc4c3N)c(C)c2)ccc1N=Nc1cc(S(=O)(=O)O)c2ccccc2c1N | inactive | 

Row | Structure (SMILES) | IkBa stabilization activation | Potency
45 | Cc1nc2sccn2c1-c1csc(NCc2ccccc2)n1 | inconclusive: 0.00809% [signal inhibitor] | 
46 | CCn1c(COc2ccc(Cl)cc2)nnc1SCc1ccc(C#N)cc1 | inconclusive: 6.44% [signal inhibitor] | 
47 | COc1ccc(CNc2oc(-c3cccc4ccccc34)nc2C#N)cc1 | inactive | 
48 | CCCCCc1ccc(-c2ccc(C(=O)Oc3ccc(C(=O)OC)cc3)cc2)nc1 |  | inconclusive: 0.794 µM [signal inhibitor, full curve]
49 | COc1ccccc1Nc1c2c(nc3ccc(NC(=O)/C=C/c4cc(OC)c(OC)c(OC)c4)cc13)CCCC2 | inconclusive: -3.24% [signal inhibitor] | 
50 | O=C(Cc1cn2ccsc2n1)OCc1ccccc1 |  | inconclusive: 15.8 µM [signal inhibitor, partial curve]
51 | CC(C)c1ccc(NC(=O)C2Cc3ccccc3N2C(=O)c2ccccc2)cc1 (stereo unspecified) | inconclusive: 1.26% [signal inhibitor] | 
52 | O=C(O)c1cc(Cl)cc(Cc2cc(Cl)cc(C(=O)O)c2O)c1O | inactive: 1.94% [at 11.4 µM, scaled: untreated 0%, proteasome inhibitor 100%] | 
53 | COc1ccccc1CNC(=O)c1ccc(CSc2nc3ccncc3n2Cc2ccccc2C)cc1 | inconclusive: 1.68% [signal inhibitor] | 
54 | CCc1nc2oc(C(=O)c3ccccc3)c(N)c2c2c1COC(C)(C)C2 | inactive | 
55 | O=C(c1ccc(Nc2nc3ccccc3n3nnnc23)cc1)N1CCN(c2ccc(F)cc2)CC1 |  | inconclusive: 15.8 µM [signal inhibitor, partial curve]
56 | COc1cc(NC(=O)c2cc3nc(-c4ccc(C)cc4)cc(C(F)(F)F)n3n2)cc(OC)c1OC | inconclusive: 2.79% [signal inhibitor] | 
57 | CC(=O)c1cccc(NC(=O)Cn2c(=O)oc3cc(S(=O)(=O)NCc4ccccc4)ccc32)c1 | inactive | 
58 | O=S(=O)(Nc1ccc(F)cc1F)c1ccc(Br)s1 | inconclusive: 4.06% [signal inhibitor] | 
59 | O=C(Nc1cc(-c2nc3cc(Cl)ccc3o2)ccc1Cl)c1cccc2ccccc12 |  | inconclusive: 20 µM [signal inhibitor]
60 | COc1ccc(CCNC(=O)c2c[nH]n3c(=O)c(Cc4ccccc4Cl)c(C)nc23)cc1OC | inconclusive: 8.29% [signal inhibitor] | 
61 | CCn1c2c(c(=O)n3ncc(C(=O)Nc4ccc(OC(F)(F)F)cc4)c13)CN(Cc1ccc(OC)cc1)CC2 | inconclusive: 0.626% [signal inhibitor] | 
62 | COc1cccc(C(=O)Nc2ccc3nc(N4CCN(c5ncccn5)CC4)cc(C)c3c2)c1OC | inconclusive: 0.465% [signal inhibitor] | 
63 | CCCCCCCC/C=C\CCCCCCCC(=O)O | inactive | 
64 | Fc1ccc([C@@H]2Nc3ccccc3[C@@H]3C=CC[C@@H]32)cc1 | inconclusive: 14.1% [signal inhibitor] | 
65 | COc1ccc(/C=C/c2nc(C#N)c(N3CCCCCC3)o2)cc1OC | inconclusive: -0.331% [signal inhibitor] | 
66 | O=C(Cn1cc(S(=O)(=O)c2ccc(Cl)cc2)c(=O)c2ccccc21)Nc1ccc2c(c1)OCO2 | inconclusive: 9.92% [signal inhibitor] | 
